Measured values published in publication PMC4336329 (PLoS ONE, 2015).
In all, about 310,000 compounds went through this assay and about 2,200 (0.71%) showed an effect of 50% or more. Effects have a minus sign here. This is one part of the list.

Molecular target: human ether-à-go-go-related gene (hERG) potassium channel (human, UniProt Q12809)
Assay: primary screen, population patch clamp on CHO cells stably expressing hERG

Chain of human ether-à-go-go-related gene (hERG) potassium channel (Q12809 whole entry, looked up): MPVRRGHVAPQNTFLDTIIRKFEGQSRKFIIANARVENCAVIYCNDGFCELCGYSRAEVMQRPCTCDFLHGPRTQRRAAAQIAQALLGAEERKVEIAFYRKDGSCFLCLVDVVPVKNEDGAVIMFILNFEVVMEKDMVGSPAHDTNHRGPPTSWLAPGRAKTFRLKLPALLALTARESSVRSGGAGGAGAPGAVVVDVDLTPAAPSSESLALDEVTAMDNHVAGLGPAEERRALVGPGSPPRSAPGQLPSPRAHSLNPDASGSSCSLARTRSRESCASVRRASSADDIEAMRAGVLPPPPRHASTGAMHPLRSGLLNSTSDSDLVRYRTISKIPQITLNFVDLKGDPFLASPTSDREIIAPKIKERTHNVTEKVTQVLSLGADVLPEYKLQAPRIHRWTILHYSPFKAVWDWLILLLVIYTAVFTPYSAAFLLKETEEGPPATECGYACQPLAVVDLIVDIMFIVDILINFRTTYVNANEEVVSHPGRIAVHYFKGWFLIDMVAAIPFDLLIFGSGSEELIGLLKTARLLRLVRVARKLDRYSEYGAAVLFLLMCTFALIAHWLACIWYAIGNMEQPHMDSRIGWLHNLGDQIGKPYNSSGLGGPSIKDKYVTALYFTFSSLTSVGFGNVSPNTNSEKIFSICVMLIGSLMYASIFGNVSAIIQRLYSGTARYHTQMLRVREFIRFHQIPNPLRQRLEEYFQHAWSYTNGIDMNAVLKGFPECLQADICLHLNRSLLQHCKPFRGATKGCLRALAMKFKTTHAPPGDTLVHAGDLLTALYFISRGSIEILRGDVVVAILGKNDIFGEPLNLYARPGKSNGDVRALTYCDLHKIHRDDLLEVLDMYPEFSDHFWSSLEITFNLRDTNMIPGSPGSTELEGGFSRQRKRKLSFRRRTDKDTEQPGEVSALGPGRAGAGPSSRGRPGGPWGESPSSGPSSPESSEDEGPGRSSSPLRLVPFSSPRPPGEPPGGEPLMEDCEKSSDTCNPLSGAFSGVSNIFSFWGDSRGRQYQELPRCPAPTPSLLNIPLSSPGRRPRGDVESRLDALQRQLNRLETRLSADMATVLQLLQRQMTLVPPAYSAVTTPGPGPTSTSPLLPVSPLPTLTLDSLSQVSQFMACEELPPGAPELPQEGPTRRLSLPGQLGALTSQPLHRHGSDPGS

Going from `COc1ccc(NC(=O)CS(=O)(=O)c2cn(CC(=O)N3CCOCC3)c3ccccc23)cc1OC` to `COc1ccc(NC(C)=O)cc1S(=O)(=O)N1CCN(Cc2cccs2)CC1`, the “hERG current change (%, negative = inhibition) at 1uM” value falls from 11.5% to 9.42%.

`CCNc1sc(C(=O)OCC)c(N)c1C#N` and `CCOC(=O)c1sc(NC(=O)CSc2nc3ccccc3s2)c(C(=O)OCC)c1C` are the same in “hERG current change (%, negative = inhibition) at 1uM” value: 16% for the first, 16% for the second.

Going from `CC(C)(CS(=O)(=O)[O-])NC(=O)CC[N+](C)(C)CCO` to `CCCN(CCC)C(=O)C(CCC(=O)[O-])NC(=O)c1ccccc1.[Na+]` (centres unmarked), the “hERG current change (%, negative = inhibition) at 1uM” value falls from 9.33% to 5.45%.

Going from `COc1ccc(-c2cc(C(=O)OCc3ccccn3)c3ccccc3n2)cc1` to `COc1ccc(C(=S)Nc2ccccc2)cc1`, the “hERG current change (%, negative = inhibition) at 1uM” value rises from 16.8% to 20.4%.

Compared with `COCC(=O)NCCc1nc(-c2ccccc2)cs1`, `COCCSc1ccccc1C(=O)Nc1ccncc1` is higher in “hERG current change (%, negative = inhibition) at 1uM” value: 11.7% for the first, 14.7% for the second.

Compared with `c1coc(-c2nn3c(Cn4nnc5ccccc54)nnc3s2)c1`, `CCn1c(COc2ccccc2)nnc1SCC(=O)c1cccc([N+](=O)[O-])c1` is lower in “hERG current change (%, negative = inhibition) at 1uM” value: -3.47% for the first, -11.7% for the second.

First: COc1cccc(NC(=O)N2CCC(NC(=O)C(Cc3ccccc3F)NC(C)=O)CC2)c1 (centres unmarked)
Second: COc1cccc(N2CCN(CC(=O)c3c(C)[nH]c4ccccc34)CC2)c1
The “hERG current change (%, negative = inhibition) at 1uM” value of the first is higher: 9.79% for the first, -10.9% for the second.

Going from `COc1ccc2oc(=O)c(C(=O)NC3CCCCCC3)cc2c1` to `CC(C)[C@H](NC(=O)[C@@H]1CSC2c3ccccc3C(=O)N21)C(=O)NC1CCCCC1` (some centres unmarked), the “hERG current change (%, negative = inhibition) at 1uM” value rises from 15.6% to 17%.

Compared with `COc1cccc(CN2CC(C(=O)NCc3cccc(N4CCCC4)c3)CCC2=O)c1` (centres unmarked), `COc1ccc(N2CCN(C(=O)CCC(=O)N3CC(C)Oc4ccccc43)CC2)cc1` (centres unmarked) is lower in “hERG current change (%, negative = inhibition) at 1uM” value: 5.69% for the first, -16.6% for the second.

Compared with `CCC12CN(S(=O)(=O)c3ccc(C)cc3)CC(CC)(CN(S(=O)(=O)c3ccc(C)cc3)C1)C2=O`, `CCOC(=O)Nc1ccc(NS(=O)(=O)c2ccc(C)cc2)cc1` is lower in “hERG current change (%, negative = inhibition) at 1uM” value: 3.9% for the first, 1.61% for the second.

Compared with `COc1ccc(C(=O)Nc2sc(C(=O)N(C)C)c(C)c2C#N)cc1[N+](=O)[O-]`, `COc1ccc([N+](=O)[O-])cc1NC(=O)C(C)OC(=O)c1cccnc1Cl` (centres unmarked) is lower in “hERG current change (%, negative = inhibition) at 1uM” value: 12% for the first, 5.53% for the second.

Compared with `CCCCN(CC)C(=O)CSc1nc2ccccc2c(=O)n1CC1COc2ccccc2O1` (centres unmarked), `COCCn1c(SCC(=O)Nc2ccc(S(=O)(=O)N(C)C)cc2)nc2ccccc21` is lower in “hERG current change (%, negative = inhibition) at 1uM” value: -0.268% for the first, -0.343% for the second.

Compared with `CS(=O)(=O)N1CC(C(=O)O)Oc2ccc(CC(=O)O)cc21` (centres unmarked), `NS(=O)(=O)c1cccc(NC(=O)Cc2ccc(Cl)c(Cl)c2)c1` is lower in “hERG current change (%, negative = inhibition) at 1uM” value: 16.9% for the first, 3.87% for the second.

Compared with `Cn1cnnc1SCC(=O)Nc1ccccc1C(=O)NC1CC1`, `COc1ccccc1C(=O)NC(=O)COC(=O)C1CC1` is lower in “hERG current change (%, negative = inhibition) at 1uM” value: 3.28% for the first, -2.92% for the second.

Going from `S=C(NCCSCc1ccc(Cl)cc1)Nc1ccccc1` to `S=C(Nc1ccccc1)Nc1ccc(Br)cn1`, the “hERG current change (%, negative = inhibition) at 1uM” value rises from 7.25% to 16.1%.

Compared with `C=CCNC(=S)NNC(=O)c1ccc(OCC)cc1`, `CC(=O)c1ccc(NC(=O)CCNS(=O)(=O)c2ccccc2F)cc1` is higher in “hERG current change (%, negative = inhibition) at 1uM” value: 11.8% for the first, 12.2% for the second.

First: Cn1c(/C=C/c2ccc(Cl)cc2Cl)c([N+](=O)[O-])c(=O)n(C)c1=O
Second: CCOC(=O)C1=C(C)NC(=O)NC1c1ccc(Cl)cc1Cl (centres unmarked)
The “hERG current change (%, negative = inhibition) at 1uM” value of the first is higher: 10.5% for the first, -2.13% for the second.

Going from `CC(=O)c1ccc(C(=O)Nc2nnc(-c3ccc(Cl)cc3)o2)cc1` to `O=C(NCCCN=C1NS(=O)(=O)c2ccccc21)c1ccc(Cl)cc1`, the “hERG current change (%, negative = inhibition) at 1uM” value rises from 13.3% to 23.1%.

Compared with `CC(=O)N(CCN1CCOCC1)Cc1cc2cc3c(cc2nc1Cl)OCO3`, `Cc1nc2sc(C(c3ccco3)N3CCC4(CC3)OCCO4)c(O)n2n1` (centres unmarked) is lower in “hERG current change (%, negative = inhibition) at 1uM” value: 11.9% for the first, 2.08% for the second.

First: Cc1ccc(Cl)cc1NC(=S)N(C)N
Second: O=C(COC(=O)C1CC1)Nc1ccc(Cl)cc1Cl
The “hERG current change (%, negative = inhibition) at 1uM” value of the first is lower: 9.76% for the first, 14.9% for the second.

Going from `O=C(N/N=C/c1c(Cl)[nH]c2ccccc12)c1ccc2c(c1)OCCO2` to `O=C(NCc1ccccc1Cl)c1ccc2c(=O)n(CCCN3CCCC3=O)c(=S)[nH]c2c1`, the “hERG current change (%, negative = inhibition) at 1uM” value falls from 9.1% to -3.62%.

First: CCCNC(=O)N1[C@H]2CC[C@@H]1C(C(=O)OC)=C(c1ccc(F)cc1OCc1ccccc1)C2
Second: CSCCC(NC(=O)c1ccc([N+](=O)[O-])cc1Cl)C(=O)OCC(=O)NCCCc1ccccc1 (centres unmarked)
The “hERG current change (%, negative = inhibition) at 1uM” value of the first is higher: 11.9% for the first, 11.8% for the second.

Going from `COc1cccc(/C=N/n2c(C)nc3ccccc32)c1OC` to `Cc1ccc(/C=N/n2c(-c3cccs3)n[nH]c2=S)cc1`, the “hERG current change (%, negative = inhibition) at 1uM” value falls from 12.6% to 8.29%.

Going from `CN(Cc1ccccc1)C(=O)c1ccc([N+](=O)[O-])o1` to `Cc1ccc(Cn2c(CN(C)Cc3ccccc3)nc3c2c(=O)n(C)c(=O)n3C)cc1`, the “hERG current change (%, negative = inhibition) at 1uM” value rises from 11.4% to 15.6%.

First: O=C(CN1CCN(c2ccc(F)cc2)CC1)NC(=O)NCc1ccco1
Second: Nc1ccc2nn(-c3ccc(F)cc3)nc2c1
The “hERG current change (%, negative = inhibition) at 1uM” value of the first is lower: 5.56% for the first, 18.4% for the second.

Going from `Br.CC(=O)Nc1ccc(-c2csc(N/N=C\c3ccncc3)n2)cc1` to `Clc1ccccc1-c1csc(Nc2cccnc2)n1`, the “hERG current change (%, negative = inhibition) at 1uM” value falls from 3.67% to 2.38%.

Compared with `CC(=O)Nc1ccccc1NC(=O)CN(C)S(=O)(=O)c1ccc(C)cc1`, `CCOC(=O)C(=O)N(Nc1ccc(C)cc1)c1ccc(C)cc1` is higher in “hERG current change (%, negative = inhibition) at 1uM” value: 3.16% for the first, 4.37% for the second.

First: CN(C)c1ccc(S(=O)(=O)NCC(=O)OCC(=O)c2ccc[nH]2)cc1[N+](=O)[O-]
Second: COc1ccc(Cl)cc1C(=O)NCC(c1ccco1)N(C)C (centres unmarked)
The “hERG current change (%, negative = inhibition) at 1uM” value of the first is lower: 7.86% for the first, 14.7% for the second.

Going from `C=CCOC(=O)C1=C(C)NC(=O)NC1c1cc(Cl)cc(Cl)c1OC` (centres unmarked) to `O=C(COC(=O)C1=COCCO1)Nc1ncc(Cl)cc1Cl`, the “hERG current change (%, negative = inhibition) at 1uM” value falls from 8.06% to 5.39%.

Going from `COc1ccccc1/C=C1\SC(=O)N(CCC(=O)N2CCCCC2CCO)C1=O` (centres unmarked) to `CC1CCCCN1C(=O)COC(=O)c1n[nH]c2ccccc12` (centres unmarked), the “hERG current change (%, negative = inhibition) at 1uM” value falls from 14.7% to -0.522%.

Going from `CCNC(=S)N=Nc1c(O)[nH]c2ccc(C(C)C)cc12` to `COc1cccc(NC(=S)N(CCC(C)C)C(C)c2ccncc2)c1` (centres unmarked), the “hERG current change (%, negative = inhibition) at 1uM” value falls from 8.69% to 4.82%.

First: CCc1nonc1NC(=O)c1oc2ccc(C)cc2c1C
Second: Cc1nonc1NC(=O)CSc1nc2c(C)cccc2cc1C#N
The “hERG current change (%, negative = inhibition) at 1uM” value of the first is higher: 16% for the first, 5.44% for the second.

Compared with `COc1cc2c(cc1NC(=S)Nc1cccc(C(F)(F)F)c1)oc1ccccc12`, `Cn1nc(C(=O)Nc2cccc(C(F)(F)F)c2)c2ccccc2c1=O` is higher in “hERG current change (%, negative = inhibition) at 1uM” value: 13.3% for the first, 15.7% for the second.

Compared with `COc1cc(C)nc(SCC(N)=O)n1`, `CC(C)CSc1nnc2[nH]c(=O)cc(N)n12` is higher in “hERG current change (%, negative = inhibition) at 1uM” value: 6.86% for the first, 9.88% for the second.

Going from `CCS(=O)(=O)C1=NSC2=NC(=O)/C(=C\c3ccc(OS(=O)(=O)c4ccccc4)c(OC)c3)C(=N)N21` to `COc1ccc(-c2noc(CSc3nnc(CCc4ccccc4)n3-c3ccccc3)n2)cc1OC`, the “hERG current change (%, negative = inhibition) at 1uM” value falls from 16.2% to -3.39%.

Compared with `COc1cccc(C2=NC(C)(C)NC(c3ccccc3O)C2)c1` (centres unmarked), `CCCCC(=NCCc1c(C)[nH]c2ccc(OC)cc12)C1=C(O)CC(c2ccccc2)CC1=O` (centres unmarked) is lower in “hERG current change (%, negative = inhibition) at 1uM” value: 12% for the first, 2.35% for the second.

First: Cc1ccc(Nc2cnn(C34CC5CC(CC(CC(=O)O)(C5)C3)C4)c(=O)c2Cl)cc1C
Second: CCOC(=O)c1ccc(NS(=O)C23CC4CC(CC(C4)C2)C3)cc1 (centres unmarked)
The “hERG current change (%, negative = inhibition) at 1uM” value of the first is lower: 12.1% for the first, 18.8% for the second.

Compared with `Cn1c(Cc2csc(N)n2)nnc1SCC(=O)NC1CCCCC1`, `CCCCc1c(O)nc(SCC(=O)Nc2ccc3c(c2)CCC3)[nH]c1=O` is lower in “hERG current change (%, negative = inhibition) at 1uM” value: 9.21% for the first, 7.5% for the second.

Compared with `CN(C)C(=O)c1nc2ccc(Cl)cn2c1CNCc1ccccc1OC(F)(F)F`, `COc1ccc(Cc2nnc(SCC(=O)Nc3ccc(C)c(Cl)c3)[nH]c2=O)cc1` is lower in “hERG current change (%, negative = inhibition) at 1uM” value: 14% for the first, 5.51% for the second.

Going from `O=C(O)C1OC(C(=O)O)C2C1C(F)(F)C2(F)F` (centres unmarked) to `Cc1ccc(S(=O)(=O)N2[C@@H](c3ccccc3F)C(C(=O)O)=CC[C@H]2c2ccc(Cl)c(Cl)c2)cc1`, the “hERG current change (%, negative = inhibition) at 1uM” value falls from 14.1% to 8.4%.

Compared with `C/C(Cn1cnc([N+](=O)[O-])n1)=N\NC(=O)c1ccccc1F`, `Cc1ccc(S(=O)(=O)N/N=C/c2cccn2-c2ccc(Cl)cc2)cc1` is lower in “hERG current change (%, negative = inhibition) at 1uM” value: 9.66% for the first, 5.53% for the second.

Compared with `COc1cc(C(=O)NCc2ccco2)c(Br)c(OC)c1OC`, `C#CC(C)(CC)NC(=O)c1cc(OC)c(OC)c(OC)c1` (centres unmarked) is higher in “hERG current change (%, negative = inhibition) at 1uM” value: 0.975% for the first, 11.5% for the second.

First: CC1CCCN(C(=O)Nc2ccc(Br)cc2Cl)C1 (centres unmarked)
Second: OCC(C#CCN1CCCCC1)NCc1ccccc1 (centres unmarked)
The “hERG current change (%, negative = inhibition) at 1uM” value of the first is lower: -9.24% for the first, 14.9% for the second.

Going from `COc1ccc(CCNC(=O)CS(=O)Cc2nc(-c3cccs3)oc2C)cc1OC` (centres unmarked) to `Cc1ccc2c(C)nc(Nc3nc(CSc4nnnn4-c4ccccc4)cc(=O)[nH]3)nc2c1`, the “hERG current change (%, negative = inhibition) at 1uM” value rises from -0.756% to 8.26%.

In the case of `N#Cc1c(Nc2ccccc2C(F)(F)F)s[nH]c1=O`, the “hERG current change (%, negative = inhibition) at 1uM” value is reported as 10.6%.
